# About 150 (0.041%) of roughly 370,000 compounds were called active. This list was built around the results that the source calls inconclusive (neither active nor inactive); the mix of calls is not that of the screen. Calls follow the shape of the dose curve; as a rule, active = well fitted inhibition curve with a large enough effect; inconclusive = small, poorly fitted or top-dose-only effect; inactive = flat fitted curve, though single readings scatter. Potencies of inconclusive entries are left out as doubtful fits.
# Target: Beta-lactamase (Escherichia coli (strain K12)) (UniProt P00811)
# Chain of UniProt P00811 (P00811 whole entry, looked up): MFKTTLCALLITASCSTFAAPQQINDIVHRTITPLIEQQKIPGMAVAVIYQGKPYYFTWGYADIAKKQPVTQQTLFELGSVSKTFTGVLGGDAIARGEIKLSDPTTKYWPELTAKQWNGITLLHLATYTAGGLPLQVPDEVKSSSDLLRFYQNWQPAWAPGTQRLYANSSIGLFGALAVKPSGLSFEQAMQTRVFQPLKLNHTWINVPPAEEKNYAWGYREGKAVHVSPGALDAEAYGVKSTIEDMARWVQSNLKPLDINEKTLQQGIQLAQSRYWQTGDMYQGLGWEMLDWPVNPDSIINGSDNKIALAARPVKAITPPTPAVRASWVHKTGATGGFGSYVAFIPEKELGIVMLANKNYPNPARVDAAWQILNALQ
# Test: qHTS Inhibitors of AmpC Beta-Lactamase (assay with detergent); also: nearly all actives have a fitted effect of over 25% in size
# Conditions: AmpC hydrolysis of nitrocefin, absorbance 480 nm, 0.01% Triton; series mostly up to 114 µM
# In short: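 20 mM phosphate pH 7.0 + 0.01% (detergent screen) or 0.0001% Triton X-100; 5.3 nM AmpC reagent; cpd preinc 15 min RT; nitrocefin (800 uM stock) to start; A480 q20 s × 4 min; Activity was normalised to no-enzyme and no-compound control wells.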
# Potency is read from the fitted curve at half-maximal effect; tags tell the direction and shape of the fitted curve.
row,SMILES,Potency
1,Cc1ccc2nc(SCC(=O)NCCc3ccccc3)nc(=O)n2c1,"inconclusive [inhibitor, partial curve]"
2,O=C(C1CCN(S(=O)(=O)c2ccc(Cl)cc2)CC1)N1CCOCC1,inactive
3,CCCCc1nc2cc(C(=O)N3CCC(O)CC3)ccc2o1,"inconclusive [inhibitor, full curve, poor fit]"
4,O=C(CSc1nc2ccccc2o1)Nc1ccc(Cl)cc1,inactive
5,Cc1cc(C)c(C)c(S(=O)(=O)N2C(=S)NC(=O)C2C(C)C)c1C (stereo not given),"inconclusive [inhibitor, full curve]"
6,Cn1cc(S(=O)(=O)N2CCCCC2)cc1C(=O)Nc1ccc(OC(F)(F)F)cc1,inactive
7,O=C(Nc1cccc([N+](=O)[O-])c1)c1ccc2c(c1)OCO2,"inconclusive [inhibitor, partial curve, poor fit]"
8,Cc1c(Cl)cccc1NC(=O)c1ccc(OCC(=O)NCc2ccccc2)cc1,"inconclusive [inhibitor, full curve, poor fit]"
9,CCOC(=O)c1cc2n(c1C)-c1ccccc1C2=O,"inconclusive [inhibitor, partial curve]"
10,CC(=O)Nc1ccc2nc(NC(=O)c3ccc([N+](=O)[O-])o3)sc2c1,"inconclusive [inhibitor, full curve]"
11,COc1ccc(C(=O)N2CCN(c3ccc(NC(=O)c4cccs4)cc3)CC2)cc1,"inconclusive [inhibitor, partial curve, poor fit]"
12,O=C(NCc1ccccc1Cl)c1ccc(NC(=O)N2CCSc3ccccc32)cc1,inactive
13,COCCNC(=O)C(c1ccc(C)cc1)N(C(=O)CCC(=O)Nc1ccccn1)C1CCCCC1 (stereo not given),inactive
14,Cc1ccc(OCc2cc(=O)n3c4c(sc3n2)CCCC4)cc1C,inactive
15,COC(=O)[C@@]1(Cc2ccc(OC)cc2)[C@@H]2C(=CC(=O)[C@H]2CC(=O)C(=O)N2CCCC2)CN1C(=O)c1ccccc1,inactive
16,C=CCOc1ccc(Br)cc1/C=N/O,"inconclusive [inhibitor, partial curve, poor fit]"
17,CC(=O)Nc1ccc(NC(=O)CSc2nnc(C3CC3)n2C)cc1,"inconclusive [inhibitor, partial curve]"
18,COc1ccc(OCC(=O)NCCNC(=O)c2cccnc2)cc1,"inconclusive [inhibitor, full curve, poor fit]"
19,CCN(CC)c1nc(-c2ccccn2)nc(-c2ccccc2)c1C#N,inactive
20,O=C(Nc1nc2c(Cl)cccc2s1)c1ccc(Br)o1,"inconclusive [inhibitor, full curve, poor fit]"
21,O=C(CSc1ccccc1)Nc1cccc(S(=O)(=O)N2CCCCC2)c1,"inconclusive [inhibitor, full curve, poor fit]"
22,Clc1cccc(-c2nn3c(COc4ccccc4)nnc3s2)c1,"inconclusive [inhibitor, partial curve]"
23,COC(=O)c1ccc(Oc2nc3c(c(=O)n(C)c(=O)n3C)n2Cc2ccc(Cl)c(Cl)c2)cc1,inactive

row,SMILES,Potency
1,CCN(CC)C(=O)COc1ccc(-c2ccccc2)cc1,inactive
2,CCOC(=O)CS(=O)(=O)c1nc(-c2ccccc2)cc(C(F)(F)F)n1,inactive
3,CS(=O)(=O)Nc1ccccc1C(=O)Nc1cccc(Cl)c1,inactive
4,CCOC(=O)C1CCCN(S(=O)(=O)c2ccc3ccccc3c2)C1 (stereo not given),inactive
5,CC(C)c1ccc(NS(=O)(=O)c2ccc3[nH]cc(C(=O)N4CCC(C(N)=O)CC4)c(=O)c3c2)cc1,"inconclusive [inhibitor, full curve, poor fit]"
6,Cc1cc(NCc2ccc(Cl)cc2)n2cnnc2n1,inactive
7,O=C(Nc1nnc(S(=O)(=O)N2CCCCCC2)s1)c1ccccc1,"inconclusive [inhibitor, partial curve, poor fit]"
8,Cc1ccc(NS(=O)(=O)c2cccc(C(=O)NCCCN3CCCC3=O)c2)cc1,"inconclusive [inhibitor, full curve, poor fit]"
9,CN(Cc1ccco1)C(=O)c1ccc(S(=O)(=O)N2CCCCCC2)cc1,inactive
10,COc1cccc(-c2csc3nnc(SCC(=O)NCc4cccs4)n23)c1,"inconclusive [inhibitor, full curve, poor fit]"
11,COC(=O)c1ccc(/C=N/n2cnnc2)cc1,"inconclusive [inhibitor, partial curve, poor fit]"
12,CCn1c(=O)c2ccccc2n(CC(=O)NC2CCCCC2)c1=O,inactive
13,O=C(NCCN1C(=O)S/C(=C\c2ccccc2F)C1=O)C1=COCCO1,"inconclusive [inhibitor, full curve, poor fit]"
14,O=C(Nc1ccc(F)c(Cl)c1)C1CCN(S(=O)(=O)c2ccc3c(c2)CCCN3C(=O)C2CCC2)CC1,inactive
15,O=C(Nc1nnc(N2CCCCCC2)s1)c1cc(-c2ccc(Br)cc2)on1,"inconclusive [inhibitor, full curve, poor fit]"
16,COc1ccc(NC(=O)C(=O)NNC(=O)c2cccs2)c(OC)c1,inactive
17,Cc1ccc(NC(=S)NCC2CCN(C(C)c3ccccc3)C2)cc1C (stereo not given),"inconclusive [inhibitor, full curve, poor fit]"
18,Nc1nnc(SCC(=O)c2ccco2)s1,inactive
19,COc1cc(NC(=O)C2CCCO2)c(C(=O)O)cc1OC (stereo not given),"inconclusive [inhibitor, full curve, poor fit]"
20,CC1CCCC(C)N1CCCNC(=O)c1cc2c(=O)n(C)c3ccccc3c2n1C (stereo not given),"inconclusive [inhibitor, partial curve, poor fit]"
21,O=C1CNC(=O)N1Cc1ccc(Br)cc1,"inconclusive [inhibitor, full curve, poor fit]"
22,COc1ccc(NC(=O)NNC(=O)C(O)(c2ccccc2)c2ccccc2)cc1,"inconclusive [inhibitor, full curve, poor fit]"
